We go through 40 sequences from the supplement of paper PMC7826260.

This is one part of the list. Viral Rep nickase domains cut single-stranded DNA in vitro (3 µM enzyme, 1 h, 37 °C); shown is the middle of each 90-letter strand. Numbers give uncut DNA relative to the enzyme-free pool, as log2; more negative means more cut, near 0 not cut, and no call is made. Because reads are shares of a total, they shift together; where an enzyme cuts many sequences, the uncut ones exceed 0.

This assay deals with T1, Rep nickase domain of tomato golden mosaic virus.
T1 sequence (residues 1-124, tag not shown): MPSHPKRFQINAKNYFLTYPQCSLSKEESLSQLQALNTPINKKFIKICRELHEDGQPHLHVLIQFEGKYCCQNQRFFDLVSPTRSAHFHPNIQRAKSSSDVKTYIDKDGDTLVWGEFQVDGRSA
Kind of assay: uncleaved DNA left, log2 of reads against the no-enzyme library (log2 ratio); higher = less cleavage (more negative = more Rep cleavage of the k-mer); sequences stand for … in CTCGTCCG…ACCGGAGA
Here is the method: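 A pool of 90-nt single-stranded DNAs with seven random bases just before the constant AC of the nick site (name = the seven bases) was cut by 3 µM recombinant His6-SUMO-tagged Rep nickase domain (300 nM DNA, 50 mM HEPES pH 8.0, 50 mM NaCl, 1 mM MnCl2, 1 h, 37 °C, three replicates). Uncut DNA was amplified and sequenced.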
Turning to ACGATGT, the “uncleaved DNA left (log2)” value came out at 0.139.

Regarding TAAATAT, the “uncleaved DNA left (log2)” value was -3.18.

Regarding TCTGCTT, the “uncleaved DNA left (log2)” value was -0.0755.

On to TGGAAGC, for which the “uncleaved DNA left (log2)” value came to 0.0597.

Turning to ATCGGAA, the “uncleaved DNA left (log2)” value was 0.0157.

Take CTGCAAC: the “uncleaved DNA left (log2)” value was -0.221.

With AACATGT, the “uncleaved DNA left (log2)” value was 0.0768.

Regarding ATAAGTT, the “uncleaved DNA left (log2)” value is -0.44.

Take CCAATAG: the “uncleaved DNA left (log2)” value turned out to be 0.147.

In the case of ATCGTTT, the “uncleaved DNA left (log2)” value is -0.0848.

As to GGAGGTT, the “uncleaved DNA left (log2)” value was -0.0517.

With GGGTTAG, the “uncleaved DNA left (log2)” value is -0.00441.

In the case of ACTAGTC, the “uncleaved DNA left (log2)” value stood at 0.0637.

As to AGACTAA, the “uncleaved DNA left (log2)” value came to 0.0513.

Turning to CAAGGCG, the “uncleaved DNA left (log2)” value was 0.112.

CTTCCCG: the “uncleaved DNA left (log2)” value was -0.0765.

For the sequence TAAGCCA, the “uncleaved DNA left (log2)” value was -0.0996.

For the sequence ACGCTGC, the “uncleaved DNA left (log2)” value amounted to 0.154.

Consider TCGGCAA, for which the “uncleaved DNA left (log2)” value was -0.0333.

GGCAATA: the “uncleaved DNA left (log2)” value was 0.0806.

As to CATTGAC, the “uncleaved DNA left (log2)” value was -0.0252.

For the sequence GGACCCC, the “uncleaved DNA left (log2)” value came to 0.14.

For CTAGAGT, the “uncleaved DNA left (log2)” value is -0.165.

For AACGTTG, the “uncleaved DNA left (log2)” value came to 0.11.

Regarding CTCCGAC, the “uncleaved DNA left (log2)” value was -0.187.

Turning to CGCTACT, the “uncleaved DNA left (log2)” value is -0.111.

For GACGTAC, the “uncleaved DNA left (log2)” value is -0.00225.

For ACCGTGG, the “uncleaved DNA left (log2)” value was -0.0381.

Turning to GCGCGCA, the “uncleaved DNA left (log2)” value is -0.0384.

Regarding AAATCGC, the “uncleaved DNA left (log2)” value was -0.226.

With GTCTGAG, the “uncleaved DNA left (log2)” value stood at 0.0458.

CATCAAA: the “uncleaved DNA left (log2)” value is 0.0534.

For the sequence CTAAGGC, the “uncleaved DNA left (log2)” value stood at 0.0798.

On to CCGTTCC, for which the “uncleaved DNA left (log2)” value is -0.0628.

For ATTCCGG, the “uncleaved DNA left (log2)” value came to 0.0633.

Regarding TGATCCT, the “uncleaved DNA left (log2)” value was -0.132.

Turning to CTCCTGT, the “uncleaved DNA left (log2)” value is -0.214.

ACCCATG: the “uncleaved DNA left (log2)” value worked out at 0.106.

On to CATTACC, for which the “uncleaved DNA left (log2)” value was -0.0131.

With GTAACAC, the “uncleaved DNA left (log2)” value was determined as 0.0939.
